# Some of the results follow.
# B1: X56-1 (Clostridium perfringens), P26831 (protein)
# chain: MGSSHHHHHHSSGLVPRGSHMASDPNRIIATYISNRQDAPTGNPDNIFDNNASTELVYKNPNRIDVGTYVGVKYSNPITLNNVEFLMGANSNPNDTMQKAKIQYTVDGREWIDLEEGVEYTMPGAIKVENLDLKVRGVRLIATEARENTWLGVRDINVNKKEDSNSGVEF
# Key:
# Experiment in all cases: glycan array binding signal (z-score within array); higher = stronger binding
# Settings in all cases: glycan notation: IUPAC condensed, linker removed
# [1] = target: Fuc(a1-2)Gal
# Method in brief: (§1)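 Glycan array data were curated from 3228 arrays in the Consortium for Functional Glycomics database and kept only where the protein sequence was available. Glycan names were converted to IUPAC-condensed notation, and columns mapping to the same glycan were averaged. The binding signal is a within-array Z-score, averaged across arrays of the same protein sequence at different concentrations or buffers and across linkers. Negative Z-scores can be read as non-binding.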
# [2] = target: Fuc(a1-2)Gal(b1-3)GalNAc
# Method in brief: as §1
# [3] = target: Fuc(a1-2)Gal(b1-3)GalNAc(b1-3)Gal
# Method in brief: as §1
# [4] = target: Fuc(a1-2)Gal(b1-3)GalNAc(b1-3)Gal(a1-4)Gal(b1-4)Glc
# Method in brief: as §1
# [5] = target: Fuc(a1-2)Gal(b1-3)GalNAc(b1-3)Gal(b1-4)Glc
# Method in brief: as §1
# [6] = target: Fuc(a1-2)Gal(b1-3)GalNAc(b1-4)[Neu5Ac(a2-3)]Gal(b1-4)Glc
# Method in brief: as §1
# [7] = target: Fuc(a1-2)Gal(b1-3)[Fuc(a1-4)]GlcNAc
# Method in brief: as §1
# [8] = target: Fuc(a1-2)Gal(b1-4)Glc
# Method in brief: as §1
# [9] = target: Fuc(a1-2)Gal(b1-4)Glc6S
# Method in brief: as §1
# [10] = target: Fuc(a1-2)Gal(b1-4)GlcNAc
# Method in brief: as §1
# [11] = target: Fuc(a1-2)Gal(b1-4)GlcNAc(b1-3)Gal(b1-4)GlcNAc
# Method in brief: as §1
# [12] = target: Fuc(a1-2)Gal(b1-4)GlcNAc(b1-3)Gal(b1-4)GlcNAc(b1-3)Gal(b1-4)GlcNAc
# Method in brief: as §1
# [13] = target: Fuc(a1-2)Gal(b1-4)GlcNAc6S
# Method in brief: as §1
# [14] = target: Fuc(a1-2)Gal(b1-4)[Fuc(a1-3)]GalNAc(b1-3)Gal(b1-4)[Fuc(a1-3)]GlcNAc
# Method in brief: as §1
# [15] = target: Fuc(a1-2)Gal(b1-4)[Fuc(a1-3)]GalNAc(b1-3)Gal(b1-4)[Fuc(a1-3)]GlcNAc(b1-3)Gal(b1-4)[Fuc(a1-3)]GalNAc
# Method in brief: as §1
# [16] = target: Fuc(a1-2)Gal(b1-4)[Fuc(a1-3)]GlcNAc
# Method in brief: as §1
# [17] = target: Fuc(a1-2)Gal6S(b1-4)Glc
# Method in brief: as §1
# [18] = target: Fuc(a1-2)Gal6S(b1-4)Glc6S
# Method in brief: as §1
# [19] = target: Fuc(a1-2)Gal6S(b1-4)GlcNAc
# Method in brief: as §1
# [20] = target: Fuc(a1-2)GlcNAc
# Method in brief: as §1
# [21] = target: Fuc(a1-2)[Gal(a1-3)]Gal
# Method in brief: as §1
# [22] = target: Fuc(a1-2)[Gal(a1-3)]Gal(b1-3)GlcNAc
# Method in brief: as §1
# [23] = target: Fuc(a1-2)[Gal(a1-3)]Gal(b1-4)Glc
# Method in brief: as §1
# [24] = target: Fuc(a1-2)[Gal(a1-3)]Gal(b1-4)GlcNAc
# Method in brief: as §1
# [25] = target: Fuc(a1-2)[Gal(a1-3)]Gal(b1-4)[Fuc(a1-3)]GlcNAc
# Method in brief: as §1
# [26] = target: Fuc(a1-2)[Gal(a1-4)]Gal(b1-4)GalNAc
# Method in brief: as §1
# [27] = target: Fuc(a1-2)[GalNAc(a1-3)]Gal
# Method in brief: as §1
# [28] = target: Fuc(a1-2)[GalNAc(a1-3)]Gal(b1-3)GlcNAc
# Method in brief: as §1
# [29] = target: Fuc(a1-2)[GalNAc(a1-3)]Gal(b1-4)Glc
# Method in brief: as §1
# [30] = target: Fuc(a1-2)[GalNAc(a1-3)]Gal(b1-4)GlcNAc
# Method in brief: as §1
# [31] = target: Fuc(a1-2)[GalNAc(a1-3)]Gal(b1-4)[Fuc(a1-3)]GlcNAc
# Method in brief: as §1
# [32] = target: Fuc(a1-2)[GalNAc(a1-4)]Gal(b1-4)GlcNAc
# Method in brief: as §1
# [33] = target: Fuc(a1-3)GlcNAc
# Method in brief: as §1
# [34] = target: Fuc(a1-3)[Gal(b1-4)]Glc6S
# Method in brief: as §1
# [35] = target: Fuc(a1-3)[Gal(b1-4)]GlcNAc
# Method in brief: as §1
# [36] = target: Fuc(a1-3)[Gal(b1-4)]GlcNAc(b1-3)Gal(b1-3)[Fuc(a1-4)]GlcNAc
# Method in brief: as §1
# [37] = target: Fuc(a1-3)[Gal(b1-4)]GlcNAc(b1-4)Gal(b1-4)[Fuc(a1-3)]GlcNAc
# Method in brief: as §1
# [38] = target: Fuc(a1-3)[Gal(b1-4)]GlcNAc(b1-4)Gal(b1-4)[Fuc(a1-3)]GlcNAc(b1-4)Gal(b1-4)[Fuc(a1-3)]GlcNAc
# Method in brief: as §1
# [39] = target: Fuc(a1-3)[Gal(b1-4)]GlcNAc6S
# Method in brief: as §1
# [40] = target: Fuc(a1-3)[Gal3S(b1-4)]Glc
# Method in brief: as §1
# [41] = target: Fuc(a1-3)[Gal3S(b1-4)]Glc6S
# Method in brief: as §1
# [42] = target: Fuc(a1-3)[Gal3S(b1-4)]GlcNAc
# Method in brief: as §1
# [43] = target: Fuc(a1-3)[Gal3S(b1-4)]GlcNAc6S
# Method in brief: as §1
# [44] = target: Fuc(a1-3)[GalNAc(b1-4)]Gal(b1-4)GlcNAc
# Method in brief: as §1
# [45] = target: Fuc(a1-4)GlcNAc
# Method in brief: as §1
# [46] = target: Fuc(b1-3)GlcNAc
# Method in brief: as §1
# [47] = target: Gal(a1-2)Gal
# Method in brief: as §1
# [48] = target: Gal(a1-3)Gal
# Method in brief: as §1
# [49] = target: Gal(a1-3)Gal(b1-3)Glc
# Method in brief: as §1
# [50] = target: Gal(a1-3)Gal(b1-3)GlcNAc
# Method in brief: as §1
# [51] = target: Gal(a1-3)Gal(b1-4)GlcNAc
# Method in brief: as §1
# [52] = target: Gal(a1-3)Gal(b1-4)[Fuc(a1-3)]GalNAc
# Method in brief: as §1
# [53] = target: Gal(a1-3)GlcNAc
# Method in brief: as §1
# [54] = target: Gal(a1-3)[Gal(a1-4)]Gal(b1-4)GlcNAc
# Method in brief: as §1
# [55] = target: Gal(a1-4)Gal(b1-4)Gal
# Method in brief: as §1
# [56] = target: Gal(a1-4)Gal(b1-4)GalNAc
# Method in brief: as §1
# [57] = target: Gal(a1-4)GlcNAc
# Method in brief: as §1
# [58] = target: Gal(a1-6)Glc
# Method in brief: as §1
# [59] = target: Gal(b1-2)Gal
# Method in brief: as §1
# [60] = target: Gal(b1-3)Gal
# Method in brief: as §1
binder,measurement,setting,value
B1,glycan array binding signal (z-score),[1],0.005
same,glycan array binding signal (z-score),[2],0.09
same,glycan array binding signal (z-score),[3],0.726
same,glycan array binding signal (z-score),[4],0.367
same,glycan array binding signal (z-score),[5],0.136
same,glycan array binding signal (z-score),[6],-0.392
same,glycan array binding signal (z-score),[7],0.103
same,glycan array binding signal (z-score),[8],-0.15
same,glycan array binding signal (z-score),[9],-0.201
same,glycan array binding signal (z-score),[10],0.322
same,glycan array binding signal (z-score),[11],-0.011
same,glycan array binding signal (z-score),[12],-0.369
same,glycan array binding signal (z-score),[13],-0.244
same,glycan array binding signal (z-score),[14],0.083
same,glycan array binding signal (z-score),[15],-0.025
same,glycan array binding signal (z-score),[16],0.085
same,glycan array binding signal (z-score),[17],-0.037
same,glycan array binding signal (z-score),[18],-0.263
same,glycan array binding signal (z-score),[19],-0.389
same,glycan array binding signal (z-score),[20],0.123
same,glycan array binding signal (z-score),[21],-0.238
same,glycan array binding signal (z-score),[22],-0.349
same,glycan array binding signal (z-score),[23],-0.234
same,glycan array binding signal (z-score),[24],-0.44
same,glycan array binding signal (z-score),[25],-0.278
same,glycan array binding signal (z-score),[26],-0.145
same,glycan array binding signal (z-score),[27],0.581
same,glycan array binding signal (z-score),[28],-0.09
same,glycan array binding signal (z-score),[29],-0.425
same,glycan array binding signal (z-score),[30],0.008
same,glycan array binding signal (z-score),[31],-0.123
same,glycan array binding signal (z-score),[32],0.358
same,glycan array binding signal (z-score),[33],-0.245
same,glycan array binding signal (z-score),[34],-0.327
same,glycan array binding signal (z-score),[35],-0.089
same,glycan array binding signal (z-score),[36],-0.339
same,glycan array binding signal (z-score),[37],-0.282
same,glycan array binding signal (z-score),[38],-0.271
same,glycan array binding signal (z-score),[39],-0.489
same,glycan array binding signal (z-score),[40],-0.199
same,glycan array binding signal (z-score),[41],0.711
same,glycan array binding signal (z-score),[42],-0.063
same,glycan array binding signal (z-score),[43],-0.341
same,glycan array binding signal (z-score),[44],0.049
same,glycan array binding signal (z-score),[45],-0.46
same,glycan array binding signal (z-score),[46],-0.409
same,glycan array binding signal (z-score),[47],-0.012
same,glycan array binding signal (z-score),[48],-0.154
same,glycan array binding signal (z-score),[49],0.171
same,glycan array binding signal (z-score),[50],-0.153
same,glycan array binding signal (z-score),[51],-0.406
same,glycan array binding signal (z-score),[52],0.446
same,glycan array binding signal (z-score),[53],-0.041
same,glycan array binding signal (z-score),[54],-0.225
same,glycan array binding signal (z-score),[55],-0.325
same,glycan array binding signal (z-score),[56],-0.104
same,glycan array binding signal (z-score),[57],-0.355
same,glycan array binding signal (z-score),[58],-0.27
same,glycan array binding signal (z-score),[59],-0.101
same,glycan array binding signal (z-score),[60],0.071

# — the supplement of paper PMC8728848
